# Data reported in patent publication US5538947A, “Growth inhibitory factor” (Takeda Chemical Industries, Ltd., priority 1992, dated 1996).
# System: cells prepared from cerebral cortices of neonatal rats
# Assay: Assay of neural growth inhibitory activity (MAP2 ELISA)
# Assay type: cell-based
# Details: neonatal rat cerebral cortex cells, serum-free MEMN2 with 125 μg/ml Alzheimer's disease brain extract, 5 days at 37° C., anti-MAP2 ELISA; FIG. 6
# Method: 1.7×10^4 cells prepared from cerebral cortices of neonatal rats were seeded in a 6 mm microplate coated with gelatin-polyornithine. Each of the peptides obtained in Example 1 was added to serum-free medium MEMN2 (prepared by adding insulin, transferrin, putrescine, progesterone and sodium selenite to Eagle's medium) containing 100 μl of an aqueous solution of 125 μg/ml of Alzheimer's disease brain extract and fed for 5 days at 37° C. in a 5% carbon dioxide gas incubator. After fixing with para-formaldehyde and a solution of 90% methanol and 5% acetic acid, the amount of microtubule-bound protein 2 (MAP2: a protein specifically produced by neural cells) was determined by ELISA using anti-MAP2 antibody (Amersham). On the other hand, as control experiment, the amount of MAP2 was determined in the cultured cells only with Alzheimer's disease brain extract. Inhibitory activity was expressed by the percentage reduction rate (%) of the amount of MAP2.
row,Sequence,neural growth inhibitory activity (percentage reduction rate of the amount of MAP2)
1,"MDPETCPCPSGGSCTCADSCKCEGCK (MDPETCPCPSGGSCTCADSCKCEGCK) [TG3, trypsin-digested fragment of GIF (residues 1-26)]",clearly demonstrated neural growth inhibitory activity
2,"TCPCPSGGSC TCADSCKCE (TCPCPSGGSCTCADSCKCE) [VG2, peak of the V8 protease digest of TG3; 5th to 23rd residues of GIF]",clearly demonstrated neural growth inhibitory activity
